Results reported in the supplement of paper PMC12217912.
Some of the results follow. The full chains were built here from the parent and the listed change. Values near 0.05 are background.

B1: TEV protease; numbered along this chain (parent)
chain: MGESLFKGPRDYNPISSSICHLTNESDGHTTSLYGIGFGPFIITNKHLFRRNNGTLVVQSLHGVFKVKDTTTLQQHLVDGRDMIIIRMPKDFPPFPQKLKFREPQREERICLVTTNFQTKSMSSMVSDTSCTFPSGDGIFWKHWIQTKDGQCGSPLVSTRDGFIVGIHSASNFTNTNNYFTSVPKNFMELLTNQEAQQWVSGWRLNADSVLWGGHKVFMVKPEEPFQPVKEATQL

Variants of: B1
Experiment: raw area under fraction-flipped curve 0-4 h after induction (AUC4h, not background-subtracted), DNA-recorder readout of cleavage of the substrate (dimensionless); higher = more cleavage of the substrate by the protease variant
Settings: temperature: 34 °C; time window: 0-4 h after rhamnose induction
Method: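 In vivo DNA recorder in E. coli TOP10(DE3) ΔrhaA at 34 °C. Each TEVp single-site mutant (parent TEVp 0) is paired with a single-site variant of the 7-mer TEVs (canonical ENLYFQ|S). The substrate sits between flexible linkers in a Bxb1-sfGFP-TEVs-SsrA fusion, so cleavage stabilises Bxb1 and speeds flipping of a recombination array, read by NGS. The value is the raw area under the fraction-flipped curve over 0-4 h after rhamnose induction (AUC4h), with ≥20 reads per time point. It is not background-subtracted; inactive controls average about 0.047.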
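Also: Bxb1 expression induced with 0.2% (w/v) L-rhamnose at OD600 near 0.5, cultures sampled hourly, flipped fraction per protease–substrate barcode pair counted by paired-end Illumina sequencing.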

| Variant | area with substrate ENLYAQS | area with substrate ENLYDQS | area with substrate ENLYEQS | area with substrate ENLYGQS | area with substrate ENLYHQS | area with substrate ENLYIQS | area with substrate ENLYKQS | area with substrate ENLYRQS | area with substrate ENLYTQS | area with substrate ENLYLQS | area with substrate ENLYMQS | area with substrate ENLYPQS | area with substrate ENLYQQS | area with substrate ENLYSQS | area with substrate ENLYVQS | area with substrate ENLYWQS | area with substrate ENLYCQS | area with substrate ENLYNQS | area with substrate ENLYYQS |
| --- | --- | --- | --- | --- | --- | --- | --- | --- | --- | --- | --- | --- | --- | --- | --- | --- | --- | --- | --- |
| N193G | 0.0638 | 0.053 | 0.0528 | 0.0685 | 0.0466 | 0.0916 | 0.0635 | 0.0676 | 0.104 |  |  |  |  |  |  |  |  |  |  |
| H21R | 0.0676 | 0.0635 | 0.0655 | 0.0601 | 0.058 | 0.109 | 0.0545 | 0.066 | 0.0828 | 0.102 | 0.0837 | 0.0719 | 0.0384 | 0.071 | 0.0898 | 0.0676 |  |  |  |
| S60M | 0.0714 |  | 0.0549 | 0.0635 | 0.076 | 0.126 | 0.0709 | 0.0515 | 0.0947 |  | 0.0872 | 0.0722 |  | 0.0738 | 0.114 | 0.0639 | 0.0731 | 0.0701 |  |
| H143D | 0.0593 | 0.0526 | 0.0418 | 0.046 | 0.0645 |  | 0.058 | 0.0548 |  | 0.0598 | 0.0586 |  | 0.0211 |  | 0.11 | 0.0506 | 0.0575 | 0.0464 |  |
| S123E | 0.0837 | 0.0741 | 0.064 |  | 0.0641 |  | 0.0731 |  | 0.071 | 0.0729 | 0.0913 | 0.0773 | 0.0598 | 0.0725 |  | 0.0862 | 0.141 | 0.069 | 0.0652 |
| V67C | 0.0787 | 0.0599 | 0.0691 | 0.0533 |  | 0.122 |  | 0.0551 | 0.0809 | 0.075 |  |  | 0.0745 |  |  | 0.0796 | 0.0955 | 0.0428 |  |
| F38T | 0.0562 | 0.0488 | 0.0596 | 0.0765 | 0.0643 | 0.0834 | 0.0345 | 0.0532 | 0.0443 |  | 0.0717 | 0.0587 | 0.0575 | 0.0586 | 0.0962 | 0.0725 |  | 0.058 |  |
| K98T | 0.0812 | 0.068 | 0.07 | 0.0545 | 0.0698 | 0.0922 | 0.0837 | 0.0588 |  |  | 0.0439 | 0.0786 | 0.0561 |  | 0.101 | 0.0656 | 0.0979 | 0.0701 |  |
| P184M | 0.0533 | 0.0538 | 0.0623 | 0.0458 | 0.0594 | 0.0752 | 0.0424 | 0.0664 |  | 0.0705 | 0.0633 | 0.0627 | 0.0632 | 0.0634 |  | 0.0535 | 0.0553 | 0.0371 | 0.0545 |
| I15H | 0.0764 | 0.051 | 0.0698 |  | 0.0767 | 0.139 | 0.0575 | 0.07 |  |  |  | 0.0538 | 0.057 | 0.0635 | 0.13 | 0.0824 |  | 0.0726 | 0.0624 |
| Q227S | 0.0816 |  | 0.0766 |  | 0.0837 | 0.141 | 0.13 | 0.065 |  |  |  | 0.0753 | 0.0448 | 0.0608 | 0.183 | 0.0679 | 0.104 | 0.0695 | 0.0085 |
| Q234F | 0.0522 | 0.0627 | 0.0697 |  | 0.0693 | 0.0932 | 0.062 | 0.0676 |  |  | 0.0762 | 0.0562 |  | 0.0704 | 0.0829 | 0.0774 |  | 0.0845 | 0.0655 |
| I36F | 0.075 | 0.0545 | 0.062 | 0.0537 | 0.0707 | 0.0997 | 0.0263 | 0.0629 |  |  |  | 0.0676 | 0.0606 |  | 0.0968 |  |  | 0.0628 |  |
| T31S | 0.0612 | 0.0756 | 0.0575 | 0.058 | 0.0548 | 0.133 | 0.0623 | 0.0643 | 0.0755 | 0.0777 | 0.0943 | 0.0901 | 0.11 | 0.0604 | 0.132 | 0.0868 |  | 0.0624 |  |
| H29S | 0.0694 | 0.06 | 0.0659 | 0.0695 | 0.0618 | 0.115 | 0.0586 | 0.0645 |  | 0.0848 | 0.0855 | 0.0874 |  | 0.0816 | 0.12 | 0.07 |  | 0.0586 |  |
| P9Y | 0.0813 | 0.0677 | 0.0895 |  | 0.0712 | 0.12 |  | 0.0525 |  |  | 0.0911 |  | 0.0618 | 0.0898 | 0.119 | 0.0793 |  | 0.0835 | 0.0775 |
| H29V | 0.0787 | 0.0662 | 0.0702 | 0.0636 | 0.0628 | 0.142 | 0.0801 |  |  | 0.167 | 0.069 | 0.0792 | 0.0577 |  | 0.162 | 0.0584 |  |  |  |
| S135G | 0.0482 | 0.0629 | 0.0612 | 0.0686 | 0.0571 | 0.0719 | 0.0584 | 0.0646 | 0.0779 | 0.101 | 0.0573 | 0.0555 |  | 0.0663 | 0.0879 | 0.0559 |  | 0.062 |  |
| S124F | 0.0626 |  | 0.0695 | 0.0566 | 0.0516 | 0.0998 | 0.0595 |  | 0.0651 | 0.0853 |  | 0.0653 | 0.0468 | 0.0671 | 0.113 | 0.0693 | 0.0668 | 0.0688 | 0.06 |
| R204C | 0.0655 | 0.0608 | 0.0651 | 0.0682 | 0.069 | 0.142 | 0.0616 | 0.0653 |  |  | 0.0912 | 0.0858 | 0.0455 | 0.0776 | 0.129 | 0.0939 | 0.0912 | 0.094 | 0.075 |
| T31N | 0.0912 | 0.0742 | 0.0586 | 0.0658 | 0.08 | 0.106 | 0.0581 | 0.063 | 0.068 | 0.0846 | 0.0815 | 0.0664 | 0.0697 | 0.0634 | 0.0961 | 0.0539 | 0.0809 | 0.0704 | 0.0753 |
| F65M | 0.0741 |  | 0.0585 | 0.0758 | 0.0612 | 0.107 | 0.0407 | 0.0647 |  |  | 0.0722 | 0.073 | 0.0523 | 0.0605 |  | 0.0726 |  | 0.065 | 0.0568 |
| T114W | 0.0771 | 0.0571 | 0.0562 | 0.0653 | 0.0554 |  | 0.0625 | 0.0624 | 0.0878 | 0.0756 | 0.0907 | 0.103 | 0.0539 | 0.0757 | 0.106 | 0.0787 | 0.0602 | 0.0614 | 0.0711 |
